153 variants from a collection of fitness landscapes (doi:10.1016/j.celrep.2020.107928) can be followed below.

Whole data set: some 81,000 sequences, median “one-hybrid fitness for binding parS DNA” near -0.17, cut for the highest 2% near 0.51. This is one part of the list. A value given as a limit tells only on which side of the number the result lay.

B1: Caulobacter ParB omega fusion; a variant is named by its letters at X, in order, B8GW30 (parent)
chain: MESVVVGEPGMSEGRRGLGRGLSALLGEVDAAPAQAPGEQLGGSREAPIEILQRNPDQPRRTFREEDLEDLSNSIREKGVLQPILVRPSPDTAGEYQIVAGERAWRAAQRAGLKTVPIMVRELDDLAVLEIGIIENVQRADLNVLEEALSYKVLMEKFERTQENIAQTIGKSXSHVANXMRLLXLPDEVQSYLVSGELTAXHARAIAAAADPVALAKQIIEGGLSVRETEALARKAPNLSAGKSKGGRPPRVKDTDTQALESDLSSVLGLDVSIDHRGSTGTLTITYATLEQLDDLCNRLTRGI

The test covers variants of B1. Description: one-hybrid fitness for binding parS DNA (scaled: cognate 1, non-cognate 0); higher = stronger binding. Conditions: with parS DNA site. In a few lines: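 Selection: bacterial one-hybrid in E. coli USO, HIS3 reporter with the site 19 bp from the promoter, 48 hours at 37°C on M9-minus-histidine plus 0.1 mM IPTG and 5 mM 3-AT. Libraries were Caulobacter ParB with four randomised specificity codons, sequenced on Illumina before and after selection. Fitness is the rescaled log change in variant-to-wild-type read ratio, anchored to the cognate and non-cognate sites.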
GQSI: the “one-hybrid fitness for binding parS DNA” value is at most 0.2.

As for NCLR, the “one-hybrid fitness for binding parS DNA” value was at most 0.2.

In the case of HTIR, the “one-hybrid fitness for binding parS DNA” value was at most 0.2.

In the case of VGGV, the “one-hybrid fitness for binding parS DNA” value is at most 0.2.

Take GTPL: the “one-hybrid fitness for binding parS DNA” value is at most 0.2.

For the variant GFPY, the “one-hybrid fitness for binding parS DNA” value was at most 0.2.

SILG: the “one-hybrid fitness for binding parS DNA” value is at most 0.2.

As to KLDR, the “one-hybrid fitness for binding parS DNA” value is at most 0.2.

For VNTY, the “one-hybrid fitness for binding parS DNA” value was at most 0.2.

For TRCP, the “one-hybrid fitness for binding parS DNA” value is at most 0.2.

On to TYSM, for which the “one-hybrid fitness for binding parS DNA” value is at most 0.2.

Regarding REFS, the “one-hybrid fitness for binding parS DNA” value is at most 0.2.

For the variant KWVI, the “one-hybrid fitness for binding parS DNA” value is at most 0.2.

With MVSM, the “one-hybrid fitness for binding parS DNA” value is at most 0.2.

As for AKTV, the “one-hybrid fitness for binding parS DNA” value is at most 0.2.

With EAKY, the “one-hybrid fitness for binding parS DNA” value is at most 0.2.

Regarding TVRE, the “one-hybrid fitness for binding parS DNA” value was at most 0.2.

Regarding RHYE, the “one-hybrid fitness for binding parS DNA” value was at most 0.2.

For CSNT, the “one-hybrid fitness for binding parS DNA” value is at most 0.2.

As to HCFS, the “one-hybrid fitness for binding parS DNA” value is at most 0.2.

On to AEIN, for which the “one-hybrid fitness for binding parS DNA” value is at most 0.2.

Take IGNT: the “one-hybrid fitness for binding parS DNA” value is at most 0.2.

As for AMRI, the “one-hybrid fitness for binding parS DNA” value was at most 0.2.

For NEAG, the “one-hybrid fitness for binding parS DNA” value is at most 0.2.

With AVYA, the “one-hybrid fitness for binding parS DNA” value is at most 0.2.

Turning to RLVY, the “one-hybrid fitness for binding parS DNA” value turned out to be 0.465.

Consider EQLA, for which the “one-hybrid fitness for binding parS DNA” value was at most 0.2.

Take FQIR: the “one-hybrid fitness for binding parS DNA” value was at most 0.2.

Turning to ERLA, the “one-hybrid fitness for binding parS DNA” value is at most 0.2.

As for HDKS, the “one-hybrid fitness for binding parS DNA” value was at most 0.2.

As for FMWG, the “one-hybrid fitness for binding parS DNA” value is at most 0.2.

On to HYQF, for which the “one-hybrid fitness for binding parS DNA” value is at most 0.2.

As for LTSM, the “one-hybrid fitness for binding parS DNA” value is at most 0.2.

As for HFKG, the “one-hybrid fitness for binding parS DNA” value is at most 0.2.

CHTV: the “one-hybrid fitness for binding parS DNA” value is at most 0.2.

As for TSSL, the “one-hybrid fitness for binding parS DNA” value was at most 0.2.

Consider PFKT, for which the “one-hybrid fitness for binding parS DNA” value was at most 0.2.

Consider SARF, for which the “one-hybrid fitness for binding parS DNA” value is at most 0.2.

In the case of ITQW, the “one-hybrid fitness for binding parS DNA” value was at most 0.2.

Take SLNA: the “one-hybrid fitness for binding parS DNA” value is at most 0.2.

As to PQIG, the “one-hybrid fitness for binding parS DNA” value was at most 0.2.

Turning to HLQC, the “one-hybrid fitness for binding parS DNA” value was at most 0.2.

In the case of FTAG, the “one-hybrid fitness for binding parS DNA” value is at most 0.2.

In the case of SYSH, the “one-hybrid fitness for binding parS DNA” value is at most 0.2.

Turning to MMWG, the “one-hybrid fitness for binding parS DNA” value was at most 0.2.

With YMMN, the “one-hybrid fitness for binding parS DNA” value was at most 0.2.

Take FRCG: the “one-hybrid fitness for binding parS DNA” value was at most 0.2.

On to CKMR, for which the “one-hybrid fitness for binding parS DNA” value was at most 0.2.

On to ESMS, for which the “one-hybrid fitness for binding parS DNA” value is at most 0.2.

For the variant TEDS, the “one-hybrid fitness for binding parS DNA” value was at most 0.2.

Turning to QTNA, the “one-hybrid fitness for binding parS DNA” value is at most 0.2.

VESH: the “one-hybrid fitness for binding parS DNA” value is at most 0.2.

For DTHS, the “one-hybrid fitness for binding parS DNA” value is at most 0.2.

Regarding HSCR, the “one-hybrid fitness for binding parS DNA” value is at most 0.2.

Consider YTFG, for which the “one-hybrid fitness for binding parS DNA” value was at most 0.2.

Consider KLRT, for which the “one-hybrid fitness for binding parS DNA” value was at most 0.2.

Take QDTP: the “one-hybrid fitness for binding parS DNA” value was at most 0.2.

Regarding DRYA, the “one-hybrid fitness for binding parS DNA” value was at most 0.2.

With QYNT, the “one-hybrid fitness for binding parS DNA” value is at most 0.2.

Consider WRWP, for which the “one-hybrid fitness for binding parS DNA” value is at most 0.2.

For RHPN, the “one-hybrid fitness for binding parS DNA” value is at most 0.2.

As for NYHG, the “one-hybrid fitness for binding parS DNA” value is at most 0.2.

With LLYC, the “one-hybrid fitness for binding parS DNA” value was at most 0.2.

Take FEKR: the “one-hybrid fitness for binding parS DNA” value is at most 0.2.

In the case of DTAL, the “one-hybrid fitness for binding parS DNA” value was at most 0.2.

Take GTAW: the “one-hybrid fitness for binding parS DNA” value is at most 0.2.

Consider QANW, for which the “one-hybrid fitness for binding parS DNA” value is at most 0.2.

As to QWKS, the “one-hybrid fitness for binding parS DNA” value was at most 0.2.

On to MAPV, for which the “one-hybrid fitness for binding parS DNA” value is at most 0.2.

Consider RRCL, for which the “one-hybrid fitness for binding parS DNA” value was at most 0.2.

ITFW: the “one-hybrid fitness for binding parS DNA” value was at most 0.2.

As to EYAS, the “one-hybrid fitness for binding parS DNA” value is at most 0.2.

With NHFS, the “one-hybrid fitness for binding parS DNA” value was at most 0.2.

As to IGEL, the “one-hybrid fitness for binding parS DNA” value was at most 0.2.

With LERY, the “one-hybrid fitness for binding parS DNA” value was at most 0.2.

Take HLTS: the “one-hybrid fitness for binding parS DNA” value is at most 0.2.

In the case of TPQC, the “one-hybrid fitness for binding parS DNA” value is at most 0.2.

Regarding IHPL, the “one-hybrid fitness for binding parS DNA” value was at most 0.2.

Regarding TPHF, the “one-hybrid fitness for binding parS DNA” value is at most 0.2.

For the variant KQTL, the “one-hybrid fitness for binding parS DNA” value was at most 0.2.

Regarding ATRE, the “one-hybrid fitness for binding parS DNA” value is at most 0.2.

As to QVHC, the “one-hybrid fitness for binding parS DNA” value is at most 0.2.

GETT: the “one-hybrid fitness for binding parS DNA” value is at most 0.2.

On to TPNS, for which the “one-hybrid fitness for binding parS DNA” value was at most 0.2.

For the variant RNGV, the “one-hybrid fitness for binding parS DNA” value is at most 0.2.

As for GKWS, the “one-hybrid fitness for binding parS DNA” value was at most 0.2.

On to DNNC, for which the “one-hybrid fitness for binding parS DNA” value was at most 0.2.

Take YSIF: the “one-hybrid fitness for binding parS DNA” value was at most 0.2.

Consider LYSI, for which the “one-hybrid fitness for binding parS DNA” value was at most 0.2.

On to QNLI, for which the “one-hybrid fitness for binding parS DNA” value was at most 0.2.

For the variant RSAV, the “one-hybrid fitness for binding parS DNA” value was at most 0.2.

On to IPAP, for which the “one-hybrid fitness for binding parS DNA” value was at most 0.2.

On to RLNF, for which the “one-hybrid fitness for binding parS DNA” value was found to be 0.209.

With RERE, the “one-hybrid fitness for binding parS DNA” value was at most 0.2.

As to ARGL, the “one-hybrid fitness for binding parS DNA” value was at most 0.2.

PLSR: the “one-hybrid fitness for binding parS DNA” value is at most 0.2.

Take HGAR: the “one-hybrid fitness for binding parS DNA” value was at most 0.2.

As to AHKH, the “one-hybrid fitness for binding parS DNA” value is at most 0.2.

With WGIH, the “one-hybrid fitness for binding parS DNA” value is at most 0.2.

Regarding PTCV, the “one-hybrid fitness for binding parS DNA” value was at most 0.2.

As for HMSK, the “one-hybrid fitness for binding parS DNA” value is at most 0.2.

Regarding PDSF, the “one-hybrid fitness for binding parS DNA” value is at most 0.2.

For DHRC, the “one-hybrid fitness for binding parS DNA” value is at most 0.2.

As for YFRD, the “one-hybrid fitness for binding parS DNA” value was at most 0.2.

For the variant NRKI, the “one-hybrid fitness for binding parS DNA” value was at most 0.2.

In the case of EELR, the “one-hybrid fitness for binding parS DNA” value was at most 0.2.

For the variant MQYT, the “one-hybrid fitness for binding parS DNA” value was at most 0.2.

For the variant ATIS, the “one-hybrid fitness for binding parS DNA” value was at most 0.2.

Consider RLTM, for which the “one-hybrid fitness for binding parS DNA” value is 0.346.

Consider NNKY, for which the “one-hybrid fitness for binding parS DNA” value was 0.238.

As for RHFG, the “one-hybrid fitness for binding parS DNA” value is 0.876.

Turning to GRTF, the “one-hybrid fitness for binding parS DNA” value was at most 0.2.

For RVNS, the “one-hybrid fitness for binding parS DNA” value was found to be 0.915.

On to QCLA, for which the “one-hybrid fitness for binding parS DNA” value is at most 0.2.

For ISSG, the “one-hybrid fitness for binding parS DNA” value is at most 0.2.

As for ARMC, the “one-hybrid fitness for binding parS DNA” value is at most 0.2.

WGYF: the “one-hybrid fitness for binding parS DNA” value is at most 0.2.

Regarding GAQF, the “one-hybrid fitness for binding parS DNA” value was at most 0.2.

As for EMYG, the “one-hybrid fitness for binding parS DNA” value was at most 0.2.

Consider SMNG, for which the “one-hybrid fitness for binding parS DNA” value is at most 0.2.

As to RQCR, the “one-hybrid fitness for binding parS DNA” value was at most 0.2.

In the case of WMKR, the “one-hybrid fitness for binding parS DNA” value was at most 0.2.

For the variant RCFR, the “one-hybrid fitness for binding parS DNA” value is at most 0.2.

As to DEIG, the “one-hybrid fitness for binding parS DNA” value was at most 0.2.

Regarding VKDC, the “one-hybrid fitness for binding parS DNA” value is at most 0.2.

For REFT, the “one-hybrid fitness for binding parS DNA” value is at most 0.2.

In the case of TMMI, the “one-hybrid fitness for binding parS DNA” value is at most 0.2.

As for MRHV, the “one-hybrid fitness for binding parS DNA” value was at most 0.2.

Consider GSTC, for which the “one-hybrid fitness for binding parS DNA” value is at most 0.2.

With AVVN, the “one-hybrid fitness for binding parS DNA” value was at most 0.2.

Take LHQS: the “one-hybrid fitness for binding parS DNA” value was at most 0.2.

Regarding QAGK, the “one-hybrid fitness for binding parS DNA” value was at most 0.2.

Take HPQS: the “one-hybrid fitness for binding parS DNA” value is at most 0.2.

KMRY: the “one-hybrid fitness for binding parS DNA” value is at most 0.2.

ATLM: the “one-hybrid fitness for binding parS DNA” value was at most 0.2.

For the variant VDLM, the “one-hybrid fitness for binding parS DNA” value was at most 0.2.

Turning to ITYS, the “one-hybrid fitness for binding parS DNA” value was at most 0.2.

On to TKLT, for which the “one-hybrid fitness for binding parS DNA” value is at most 0.2.

As to SCQC, the “one-hybrid fitness for binding parS DNA” value was at most 0.2.

For the variant GQQG, the “one-hybrid fitness for binding parS DNA” value was at most 0.2.

For HDLS, the “one-hybrid fitness for binding parS DNA” value was at most 0.2.

On to CNNC, for which the “one-hybrid fitness for binding parS DNA” value was at most 0.2.

As for HESR, the “one-hybrid fitness for binding parS DNA” value was at most 0.2.

As to QPAL, the “one-hybrid fitness for binding parS DNA” value was at most 0.2.

Consider KAER, for which the “one-hybrid fitness for binding parS DNA” value is at most 0.2.

For the variant ALAS, the “one-hybrid fitness for binding parS DNA” value was at most 0.2.

With QYKP, the “one-hybrid fitness for binding parS DNA” value was at most 0.2.

As for LRLT, the “one-hybrid fitness for binding parS DNA” value is at most 0.2.

Take IAQM: the “one-hybrid fitness for binding parS DNA” value was at most 0.2.

As for RKVC, the “one-hybrid fitness for binding parS DNA” value amounted to 0.868.

As for HSSP, the “one-hybrid fitness for binding parS DNA” value is at most 0.2.

Consider AKQD, for which the “one-hybrid fitness for binding parS DNA” value is at most 0.2.

NRAG: the “one-hybrid fitness for binding parS DNA” value was at most 0.2.
